According to PubChem BioAssay AID504832 (National Center for Advancing Translational Sciences (NCATS), 2011):
Where “and” joins values, the source holds several entries; their conditions need not be identical. Equal entries are not always repeated. The campaign covered roughly 310,000 compounds. About 18,000 (5.8%) were called active. The inconclusive results got no clear call from the source; some entries with a clear call stand among them for comparison. Calls follow the shape of the dose curve; as a rule, active = well fitted inhibition curve with a large enough effect; inconclusive = small, poorly fitted or top-dose-only effect, or another doubt; inactive = no such curve, though single readings can be large or run the other way. Potencies of inconclusive entries are left out as doubtful fits.

Test: Primary qHTS for delayed death inhibitors of the malarial parasite plastid, 48 hour incubation
Conditions: P. falciparum luciferase growth in erythrocytes; series mostly up to 28.7 µM
Summary of the method: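 In quantitative HTS format, infected erythrocytes bearing luciferase-reporter parasites were treated for a single generation at 37 C. Luminescence after adding detection reagent served as the growth measure.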
% is scaled to controls: 0 for no effect and ±100 for the full control effect; potency is read from the fitted curve at half-maximal effect; tags tell the direction and shape of the fitted curve.

Row | SMILES | Potency | activity change, negative = inhibition
1 | CCOC(=O)c1ccc(NC(=O)c2c(C)[nH]c(C(=O)OCC)c2C)cc1 | inconclusive [inhibitor, single point] | –
2 | COc1ccc(N2CC(C)Cn3c2nc2c3c(=O)n(Cc3ccc(C)cc3)c(=O)n2C)c(OC)c1 (centres undefined) | active: 4.65 µM | –
3 | CCCCCOC(=O)C1=C(C)Nc2nnnn2C1c1ccc(OC)c(OC)c1OC (centres undefined) | inconclusive [inhibitor, partial curve, poor fit] | –
4 | CCCc1cc(NCC2CCCO2)n2c(nc3ccccc32)c1C#N (centres undefined) | active: 5.22 µM | –
5 | COc1ccc(-c2csc(Nc3ccc(C)cn3)n2)cc1OC | inactive | –
6 | O=C(Cc1ccc(Br)cc1)Nc1nc2ccccc2[nH]1 | inconclusive [inhibitor, single point] | –
7 | COc1ccccc1/C=C/C(=O)OCC(=O)N1CCc2ccccc21 | inactive | –
8 | O=C(CSc1nc2cccnc2n1Cc1ccccc1)NCc1ccco1 | inconclusive [inhibitor, single point] | –
9 | COc1cccc(CNc2ccc(S(=O)(=O)Nc3nccs3)cc2)c1O | inconclusive [inhibitor, partial curve] | –
10 | CCCCn1c(N)c(N(CCC(C)C)C(=O)C2CC(=O)N(Cc3ccc(C)cc3)C2)c(=O)[nH]c1=O (centres undefined) | inconclusive [inhibitor, partial curve, poor fit] | –
11 | COc1cc(CN2CCCN(C)CC2)c([N+](=O)[O-])cc1OC | inactive | –
12 | COc1ccc(-c2cc(C(=O)Nc3c(C)n(C)n(-c4ccccc4)c3=O)c3ccccc3n2)c(OC)c1 | active: 11.7 µM | –
13 | Nc1c(S(=O)(=O)c2ccccc2)c2nc3ccccc3nc2n1CCN1CCOCC1 | inconclusive [inhibitor, partial curve] | –
14 | S=C(NCCc1ccccc1)Nc1ccccc1 | inactive | –
15 | O=C(Nc1cccnc1)c1ccc(NS(=O)(=O)c2cc([N+](=O)[O-])ccc2Cl)cc1 | inactive | –
16 | O=C(Nc1ccc(C(F)(F)F)cc1)C1CCN(c2cnccn2)CC1 | inconclusive [inhibitor, partial curve, poor fit] | –
17 | CCc1ccc(OC)c(S(=O)(=O)Nc2ccc(Cc3ccncc3)cc2)c1 | inconclusive [inhibitor, partial curve] | –
18 | O=C(NCC1CC1)c1ccc2c(c1)S(=O)(=O)c1cc(Cl)ccc1C2=O | inconclusive [inhibitor, single point] | –
19 | CCN(CC1COc2ccccc2O1)C(=S)NC1CC2CCC1C2 (centres undefined) | – | inactive: -32.2% [at 5.75 µM]
20 | O=[N+]([O-])c1cn(Cc2ccccc2)cn1 | inactive | –
21 | N[C@H](CC(=O)O)C(=O)O | inactive | –
22 | CN1C(=O)/C(=C/c2cccc(Cl)c2)Sc2ccc(C(=O)N3CCCC3)cc21 | inconclusive [inhibitor, partial curve, poor fit] | –
23 | COc1ccc2[nH]c(C)c(CCNC(=S)Nc3ccccc3C)c2c1 | inconclusive [inhibitor, partial curve, poor fit] | –

Row | SMILES | Potency | activity change, negative = inhibition
24 | COc1ccc(S(=O)(=O)N2CCOCC2)cc1N=Nc1sc(N)nc1-c1ccccc1 | inconclusive [inhibitor, single point] | –
25 | COc1cc(NC(=O)c2cc([N+](=O)[O-])ccc2NC(=O)CNCc2ccccn2)cc(OC)c1 | inconclusive [inhibitor, full curve] | –
26 | O=S(=O)(NC1CCCC1)c1ccc(Br)s1 | inactive | –
27 | Cc1ccc(NC(=S)NCC(C)C)cc1 | inactive | –
28 | COc1ccc(S(=O)(=O)N2CCC(C(=O)NCc3ccco3)CC2)cc1C | inconclusive [inhibitor, partial curve, poor fit] | –
29 | O=C(CN1CCC(C(=O)c2ccc(F)cc2)CC1)Nc1ccccc1 | inconclusive [inhibitor, partial curve, poor fit] | –
30 | O=C(C1=C[C@@H](c2ccc(Br)cc2)C[C@@H](OCCCCO)O1)N1CCN(Cc2ccc3c(c2)OCO3)CC1 | active: 4.15 µM | –
31 | FC(F)C(F)(F)C1=CC(c2cccs2)=NCCN1 | inconclusive [inhibitor, partial curve] | –
32 | Cc1cccc(-n2c(Cc3ccccc3)nnc2SCc2ccc([N+](=O)[O-])cc2)c1 | inconclusive [inhibitor, partial curve] | –
33 | CC1CCC(Nc2nnnn2-c2ccccc2)CC1 (centres undefined) | inconclusive [inhibitor, single point] | –
34 | OC(CN1CCCCCC1)CN(c1ccccc1)c1ccccc1 (centres undefined) | inconclusive [inhibitor, single point] | –
35 | COc1cc(CCC(=O)Nc2cc(Cl)ccc2N2CCN(C)CC2)cc(OC)c1OC | active: 11.7 µM | –
36 | O=C(/C=C/c1ccc([N+](=O)[O-])cc1)N1CCN(S(=O)(=O)c2ccccc2)CC1 | inconclusive [inhibitor, partial curve] | –
37 | O=C(CCCCCNC(=O)N1CCn2c1nc1ccccc12)NCc1ccc(Cl)cc1 | inconclusive [inhibitor, single point] | –
38 | CC(C)Cn1c(N)c(C(=O)CCl)c(=O)n(C)c1=O | inactive | –
39 | CCc1ccc(-c2cc3c(=O)n(CC(=O)NCc4ccccc4F)ncn3n2)cc1 | inactive | –
40 | O=C(Cn1cnc2c(cnn2-c2ccc(F)cc2)c1=O)N1CCN(c2ccccc2F)CC1 | inconclusive [inhibitor, single point] | –
41 | O=C(COc1ncnc2ccccc12)Nc1ccc(Cl)c(S(=O)(=O)N2CCOCC2)c1 | inconclusive [inhibitor, partial curve, poor fit] | –
42 | CCCCNC(=O)/C(C#N)=C/c1ccc(-c2ccc(S(=O)(=O)N3CCOCC3)cc2)o1 | inconclusive [inhibitor, single point] | –
43 | CSc1nc(C)c(C(=O)C[n+]2ccccc2)cc1C#N | inconclusive [inhibitor, single point] | –
44 | CCOc1cc(S(=O)(=O)N2CCN(C(=O)c3ccco3)CC2)ccc1F | inconclusive [inhibitor, partial curve, poor fit] | –
45 | CCN(CC)C(=O)CSc1nnc(-c2ccccc2)c(-c2ccccc2)n1 | inactive | –
46 | O=C(Cn1c(=O)n(Cc2ccco2)c(=O)c2ccccc21)Nc1cccc(Cl)c1 | inconclusive [inhibitor, partial curve, poor fit] | –

Row | SMILES | Potency | activity change, negative = inhibition
47 | CCN1CCc2nc(NC(=O)Cc3ccc4c(c3)OCCO4)sc2C1 | inconclusive [inhibitor, partial curve] | –
48 | O=c1c(-c2ccc3c(c2)OCCO3)c(C(F)(F)F)oc2cc(O)cc(O)c12 | inactive | –
49 | CCCN1C(=O)/C(=C/c2ccc(C)o2)SC1=Nc1ccc(OCC)cc1 | inconclusive [inhibitor, full curve, poor fit] | –
50 | Cc1ccc(-c2nc(C(=O)NCC3CCCO3)cc3c2[nH]c2ccccc23)cc1 (centres undefined) | active: 7.38 µM | –
51 | COc1ccc(NC(=O)c2cccnc2Cl)c(S(=O)(=O)N2CCOCC2)c1 | inactive | –
52 | Cc1cc(C)n(CCC(=O)N/N=C/c2ccccc2O)n1 | inconclusive [inhibitor, single point] | –
53 | COc1ccc(-c2[nH]ncc2CNC(C)Cc2cccc(C)n2)cc1F (centres undefined) | inactive | –
54 | NC(=O)CSc1nc2scc(-c3ccc(Cl)cc3)c2c(=O)n1Cc1ccccc1 | active: 11.7 µM | –
55 | CC(C)Cn1c(=O)c(C(=O)NCc2ccc3c(c2)OCO3)c(O)c2ccccc21 | inconclusive [inhibitor, single point] | –
56 | CCn1c(CCNC(=O)c2ccc(Cl)c(Cl)c2)nnc1SCCOc1ccc(OC)cc1 | inconclusive [inhibitor, partial curve] | –
57 | Cc1cc(O)c(-c2cc(C(=O)Nc3ccc(S(=O)(=O)N4CCOCC4)cc3)[nH]n2)cc1C | active: 1.85 µM | –
58 | CCN(CC)S(=O)(=O)c1ccc(NC(=S)NC(=O)CC(C)C)cc1 | inconclusive [inhibitor, partial curve] | –
59 | CC(=O)NC(c1ccccc1)c1nc2ccccc2[nH]1 (centres undefined) | inactive | –
60 | CCn1c(=NC(=O)CS(=O)(=O)c2ccccc2)sc2cccc(OC)c21 | inconclusive [inhibitor, partial curve, poor fit] | –
61 | CCOC(=O)N1CCC(=C2c3ccc(Cl)cc3CCc3cccnc32)CC1 | active: 8.49 µM and active: 11.7 µM | –
62 | N/C(=N\O)c1ccc([N+](=O)[O-])s1 | inconclusive [inhibitor, single point] | –
63 | CC(C)C(NC(=O)c1ccc2c(c1)OCO2)C(=O)N/N=C\c1ccco1 (centres undefined) | inactive | –
64 | COC(=O)c1ccccc1NC(=O)C1(S(=O)(=O)c2ccc(Cl)cc2)CC1 | inconclusive [inhibitor, single point] | –
65 | CCCCC(O)(CCCC)C(=O)NN(C(=O)CCl)c1ccccc1 | inconclusive [inhibitor, single point] | –
66 | Cn1c(-[n+]2c(-c3ccccc3)cc(-c3ccccc3)cc2-c2ccccc2)nc2c([N+](=O)[O-])cccc21 | active: 11.7 µM | –
67 | COc1ccccc1-n1nnnc1SCC(=O)NC1CC1 | inconclusive [inhibitor, single point] | –
68 | Cn1cc(CN2CCCC(C(=O)c3ccc(-c4ccccc4)c(F)c3)C2)cn1 (centres undefined) | inconclusive [inhibitor, single point] | –
69 | CCCCSc1nc(SCC(=O)NCc2ccco2)c2c3c(sc2n1)COC(C)(CC)C3 (centres undefined) | inconclusive [inhibitor, full curve] | –
